Data published in patent publication US10954269B2, “Anti-inflammatory tripeptides” (Dr. August Wolff Gmbh & Co. KG Arzneimittel, priority 2013, dated 2021).
Part of at least one peptide drawing is inferred or uncertain, most often the ends. Some compounds share one wording; it may come from a single statement. Where a SMILES comes first, the peptide text is derived from it. [ ]: non-standard residue; d: D form. Aib = CC(C)(N)C(=O)O

Key:
[1] = test system: human keratinocyte cell line (HaCaT); assay: Cytokine secretion on protein level in activated human keratinocyte cell line HaCaT (13-plex FACS / Luminex, supernatant); assay type: cell-based; conditions: for IL-1 cytokine concentration / IL-2 cytokine concentration / IL-4 cytokine concentration / IL-5 cytokine concentration / IL-6 cytokine concentration / IL-9 cytokine concentration / IL-10 cytokine concentration / IL-13 cytokine concentration / IL-17 cytokine concentration / TNF-α cytokine concentration / IL-12p70 cytokine concentration / IL-22 cytokine concentration / IFN-γ cytokine concentration: 10^−9M; for IL-12p70 cytokine concentration / IL-22 cytokine concentration: excluded from the final assessment
Protocol: (§1) Primary T-cells were isolated from peripheral blood from healthy volunteers and from secondary lymphatic organs from naïve C57BL/6 mice, respectively. The cells were stimulated with phorbol-12-myristate-13-acetate (PMA)/Ionomycin and interferon-gamma (IFN-γ), respectively, for 48 h to activate the cells. The activated cells release pro-inflammatory cytokines. In parallel a human (HaCaT) keratinocyte cell line was activated with PMA/Ionomycin and IFN-γ, respectively, too. […] At the same time release of anti-inflammatory IL-10 was inhibited. Two days after addition of PMA/Ionomycin and IFN-γ, respectively, the induction of IL-1 secretion was determined in the supernatant for proving that the cells are activated. […] The anti-inflammatory properties of the tripeptides were determined 48 h and 72 h following stimulation. A 13-plex-system based FACS analysis was used for showing the reduced secretion of pro-inflammatory cytokines in the supernatant. Data for IL-1, IL-2, IL-6, IL-12p70 IL-17, IFN-γ and TNF-α are considered to be most relevant. Thus, analysis of the anti-inflammatory properties of the tripeptides is preferably based on the results obtained for these analytes. […] Using this method the gene expression of pro-inflammatory markers like IL-6, IL-17, IFN-γ and TNF-α was determined.
In a third experiment murine and human T cells and HaCaT cells were stimulated with PMA/Ionomycin and treated with Examples 14, 15, 16 and 17 at 10^−7 M, 10^−9 M and 10^−11 M. Cytokine concentrations (IFN-γ, IL-17 and IL-10 for T cells and IFN-γ for HaCat) were assessed in the supernatants using the Luminex technology. Expression of genes coding for Il-1β, IL-6 and TNF-α was determined. […] Moreover, concentrations of pro-inflammatory cytokines IFN-γ and IL-17 was reduced in the supernatants whereas the concentration of anti-inflammatory cytokine IL-10 was increased. […]
For the biological assay two human cell lines of different origin were chosen to allow for translation of the results obtained. A HaCaT cell is a cell type belonging to an immortal human keratinocyte line used in scientific research. Its use in research allows for the characterization of human keratinocyte using a model that is reproducible and representing a human epithelial cell line. In contrast human T-lymphocytes (T-cells) are a type of lymphocyte (itself a type of white blood cell) that play a central role in cell-mediated inflammation/immunity.

primary murine T-cells = assay: Cytokine secretion on protein level in activated primary murine T-cells (13-plex FACS / Luminex, supernatant); assay type: cell-based, C57BL/6 mice
Protocol: as §1
(§2) In a third experiment murine and human T cells and HaCaT cells were stimulated with PMA/Ionomycin and treated with Examples 14, 15, 16 and 17 at 10^−7 M, 10^−9 M and 10^−11 M. Cytokine concentrations (IFN-γ, IL-17 and IL-10 for T cells and IFN-γ for HaCat) were assessed in the supernatants using the Luminex technology. Expression of genes coding for Il-1β, IL-6 and TNF-α was determined. […] Moreover, concentrations of pro-inflammatory cytokines IFN-γ and IL-17 was reduced in the supernatants whereas the concentration of anti-inflammatory cytokine IL-10 was increased.
The anti-inflammatory and immunomodulatory effects of selected examples of the present invention were compared with common immunosuppressants. Thus, cells activated with PMA/Ionomycin and IFN-γ, respectively, were stimulated with MMF or dexamethasone. Following stimulation the secretion of pro-inflammatory cytokines was analyzed on protein and gene level (Table 9 and FIGS. 4-6).

primary human T cells = assay: Gene expression of pro-inflammatory cytokines (RT-qPCR) in primary human T cells; assay type: cell-based
From the text: Cells were activated with PMA/Ionomycin and treated with PBS, α-MSH, K(D)PT and Examples 3, 8 and 9, respectively, at a concentration of 10^−9 M. Values are normalized to β-actin and are shown relative to the gene expression in PBS-stimulated cells.
as §1, §2

[2] = HaCaT stimulated with PMA/Ionomycin
[3] = primary murine T-cells stimulated with IFN-γ, 10^−9M
[4] = primary murine T-cells stimulated with PBS, 10^−9M
[5] = primary murine T-cells stimulated with PMA/Ionomycin, 10^−9M
[6] = primary murine T-cells stimulated with PMA/Ionomycin, 10^−9M, 1:10 dilution of the supernatants

For `CC(C)(NC(=O)[C@@H]1CCCN1C(=O)[C@@H](N)CCCCN)C(=O)O` [Example 8, H-(L)-Lys-(L)-Pro-Aib-OH] (H-Lys-Pro-[Aib]-OH), the IL-1 cytokine concentration ([1]; HaCaT stimulated with IFN-γ) was 245.46 pg/mL, the IL-2 cytokine concentration ([1]; HaCaT stimulated with IFN-γ) was 111.78 pg/mL and the IL-4 cytokine concentration ([1]; HaCaT stimulated with IFN-γ) was 84.09 pg/mL. The IL-5 cytokine concentration ([1]; HaCaT stimulated with IFN-γ) was 159.55 pg/mL, the IL-6 cytokine concentration ([1]; HaCaT stimulated with IFN-γ) was 633.6 pg/mL and the IL-9 cytokine concentration ([1]; HaCaT stimulated with IFN-γ) was 98.35 pg/mL. It also gave an IL-10 cytokine concentration ([1]; HaCaT stimulated with IFN-γ) of 102.56 pg/mL, an IL-13 cytokine concentration ([1]; HaCaT stimulated with IFN-γ) of 51.17 pg/mL and an IL-17 cytokine concentration ([1]; HaCaT stimulated with IFN-γ) of 592.65 pg/mL. For the same compound, the TNF-α cytokine concentration ([1]; HaCaT stimulated with IFN-γ) was 92.08 pg/mL, the IL-12p70 cytokine concentration ([1]; HaCaT stimulated with IFN-γ) was 1789.21 pg/mL and the IL-22 cytokine concentration ([1]; HaCaT stimulated with IFN-γ) was 17253.8 pg/mL. The IFN-γ cytokine concentration ([1]; HaCaT stimulated with PBS) was 319.39 pg/mL, the IL-1 cytokine concentration ([1]; HaCaT stimulated with PBS) was 227.07 pg/mL and the IL-2 cytokine concentration ([1]; HaCaT stimulated with PBS) was 194.17 pg/mL. For the same compound, the IL-4 cytokine concentration ([1]; HaCaT stimulated with PBS) was 62.6 pg/mL, the IL-5 cytokine concentration ([1]; HaCaT stimulated with PBS) was 191.65 pg/mL and the IL-6 cytokine concentration ([1]; HaCaT stimulated with PBS) was 69.88 pg/mL. The IL-9 cytokine concentration ([1]; HaCaT stimulated with PBS) was 83.09 pg/mL, the IL-10 cytokine concentration ([1]; HaCaT stimulated with PBS) was 104.27 pg/mL and the IL-13 cytokine concentration ([1]; HaCaT stimulated with PBS) was 75.26 pg/mL. For the same compound, the IL-17 cytokine concentration ([1]; HaCaT stimulated with PBS) was 627.77 pg/mL, the TNF-α cytokine concentration ([1]; HaCaT stimulated with PBS) was 78.12 pg/mL and the IL-12p70 cytokine concentration ([1]; HaCaT stimulated with PBS) was 0 pg/mL. It also gave an IL-22 cytokine concentration ([1]; HaCaT stimulated with PBS) of 17754.7 pg/mL, an IFN-γ cytokine concentration [1, 2] of 642.47 pg/mL and an IL-1 cytokine concentration [1, 2] of 190.71 pg/mL. For the same compound, the IL-2 cytokine concentration [1, 2] was 49.76 pg/mL, the IL-4 cytokine concentration [1, 2] was 76.85 pg/mL and the IL-5 cytokine concentration [1, 2] was 157.68 pg/mL. For the same compound, the IL-6 cytokine concentration [1, 2] was 120.62 pg/mL, the IL-9 cytokine concentration [1, 2] was 124.07 pg/mL and the IL-10 cytokine concentration [1, 2] was 42.93 pg/mL. The IL-13 cytokine concentration [1, 2] was 53.79 pg/mL, the IL-17 cytokine concentration [1, 2] was 457.23 pg/mL and the TNF-α cytokine concentration [1, 2] was 67.78 pg/mL. For the same compound, the IL-12p70 cytokine concentration [1, 2] was 0 pg/mL, the IL-22 cytokine concentration [1, 2] was 12874.7 pg/mL and the “secretion / expression of pro-inflammatory cytokines (supernatant)” value ([1]; activated human keratinocytes) was “stronger anti-inflammatory effects”. For the same compound, the “secretion of anti-inflammatory cytokine IL-10” value ([1]; keratinocytes) was “induction”, the “secretion / expression of pro-inflammatory cytokines (supernatant)” value (primary murine T-cells; activated primary murine T-cells) was “stronger anti-inflammatory effects” and the IL-1 cytokine concentration (primary murine T-cells; [3]) was 47.84 pg/mL. For the same compound, the IL-2 cytokine concentration (primary murine T-cells; [3]) was 0 pg/mL, the IL-4 cytokine concentration (primary murine T-cells; [3]) was 0 pg/mL and the IL-5 cytokine concentration (primary murine T-cells; [3]) was 72.14 pg/mL. The IL-6 cytokine concentration (primary murine T-cells; [3]) was 29.32 pg/mL, the IL-10 cytokine concentration (primary murine T-cells; [3]) was 59.11 pg/mL and the IL-13 cytokine concentration (primary murine T-cells; [3]) was 84.63 pg/mL. For the same compound, the IL-17 cytokine concentration (primary murine T-cells; [3]) was 0 pg/mL, the IL-21 cytokine concentration (primary murine T-cells; [3]) was 0 pg/mL and the IL-22 cytokine concentration (primary murine T-cells; [3]) was 0 pg/mL. The IL-27 cytokine concentration (primary murine T-cells; [3]) was 404.38 pg/mL, the TNF-α cytokine concentration (primary murine T-cells; [3]) was 0 pg/mL and the IFN-γ cytokine concentration (primary murine T-cells; [4]) was 0 pg/mL. The IL-1 cytokine concentration (primary murine T-cells; [4]) was 0 pg/mL, the IL-2 cytokine concentration (primary murine T-cells; [4]) was 0 pg/mL and the IL-4 cytokine concentration (primary murine T-cells; [4]) was 0 pg/mL. For the same compound, the IL-5 cytokine concentration (primary murine T-cells; [4]) was 0 pg/mL, the IL-6 cytokine concentration (primary murine T-cells; [4]) was 14.65 pg/mL and the IL-10 cytokine concentration (primary murine T-cells; [4]) was 68.32 pg/mL. The IL-13 cytokine concentration (primary murine T-cells; [4]) was 0 pg/mL, the IL-17 cytokine concentration (primary murine T-cells; [4]) was 0 pg/mL and the IL-21 cytokine concentration (primary murine T-cells; [4]) was 0 pg/mL. The IL-22 cytokine concentration (primary murine T-cells; [4]) was 0 pg/mL, the IL-27 cytokine concentration (primary murine T-cells; [4]) was 881.79 pg/mL and the TNF-α cytokine concentration (primary murine T-cells; [4]) was 0 pg/mL. For the same compound, the IL-1 cytokine concentration (primary murine T-cells; [5]) was 0 pg/mL, the IL-4 cytokine concentration (primary murine T-cells; [5]) was 86 pg/mL and the IL-5 cytokine concentration (primary murine T-cells; [5]) was 225.53 pg/mL. For the same compound, the IL-6 cytokine concentration (primary murine T-cells; [5]) was 283.79 pg/mL, the IL-10 cytokine concentration (primary murine T-cells; [5]) was 230.31 pg/mL and the IL-13 cytokine concentration (primary murine T-cells; [5]) was 5324.44 pg/mL. The IL-17 cytokine concentration (primary murine T-cells; [5]) was 511.02 pg/mL, the IL-21 cytokine concentration (primary murine T-cells; [5]) was 0 pg/mL and the IL-22 cytokine concentration (primary murine T-cells; [5]) was 550.32 pg/mL. For the same compound, the IL-27 cytokine concentration (primary murine T-cells; [5]) was 226.79 pg/mL, the TNF-α cytokine concentration (primary murine T-cells; [5]) was 598.72 pg/mL and the “IFN-γ* cytokine concentration” value (primary murine T-cells; [6]) was 0 pg/mL. The “IL-2* cytokine concentration” value (primary murine T-cells; [6]) was 1576.19 pg/mL, the “mRNA expression of IL-6, IL-17, IFN-γ and TNF-α” value (primary human T cells; human T cells) was “reduced” and the “immunomodulatory activities relative to positive control K(D)PT” value (primary human T cells; human and murine T cells) was “comparable to K(D)PT”.
